Out of some 150,000 compounds screened, about 540 (0.36%) showed an effect of 50% or more. This is one part of the list.
System: Plasmodium falciparum
Test: Primary screen in NF54 nanoGlo assay, in single point, at 2uM, 72h; a lower Z score goes with more inhibition
Type: functional, Erythrocyte
Details: timepoint 72 hour

With `Cc1nc2ccc(NC(=O)N3CCCC[C@@H]3C)cc2s1` the “% Inhibition” value was 17% and the Z score was -3.18.
`C[C@H]1CN(C)CCN1C(=O)c1ccc2c(c1)OCCCO2` was tested, and the “% Inhibition” value was -13% and the Z score was 1.2.
For `C[C@]1(O)c2cc(F)ccc2-n2ccnc21`, the “% Inhibition” value was -3% and the Z score was 0.54.
In the case of `CC[C@@](C)(CC(=O)OC)NC(=O)c1ccccc1C`, the “% Inhibition” value is reported as -1% and the Z score is reported as 0.08.
For `O=C(NCc1cccnc1)[C@H]1CCCN(c2nccn3nc(-c4ccccc4Cl)cc23)C1`, the “% Inhibition” value was -5% and the Z score was 0.54.
In the case of `CN(CCn1ccc(=O)c2sccc21)Cc1ccc(F)cc1`, the “% Inhibition” value is reported as -12% and the Z score is reported as 1.36.
With `COc1cc(C(C)NC2CCc3nc(C)cn3C2)ccc1F` (stereo not given) the “% Inhibition” value was 17% and the Z score was -2.24.
For `CC1CC1C(=O)N1CCCC1c1nnc2ccccn12` (stereo not given), the “% Inhibition” value was -2% and the Z score was 0.39.
`COCC1(C2CCC2)CN(C(=O)N[C@H](C)C2CCCc3ccccc32)C1` (stereo not given in full) was tested, and the “% Inhibition” value was -11% and the Z score was 2.12.
With `COc1ccc(Cl)cc1C(O)CNC(=O)[C@@H]1CCCC[C@@H]1N1CCCC1=O` (stereo not given in full) the “% Inhibition” value was -2% and the Z score was 0.22.
With `COC(=O)C1=C(C(=O)OC)SC(=C2C(=S)C(C)(C)N(C(=O)Cc3ccccc3)c3cc(C)ccc32)S1` the “% Inhibition” value was 10% and the Z score was -1.69.
With `CCc1nc(C[C@H]2CN(C(=O)Nc3ccc(OC)nc3OC)CCO2)no1` the “% Inhibition” value was -10% and the Z score was 1.33.
In the case of `CC(C)(CNC(=O)CN1CCC(C(F)(F)F)CC1)NS(C)(=O)=O`, the “% Inhibition” value is reported as 7% and the Z score is reported as -1.02.
With `CCN(C)c1cccc(NC(=O)NC[C@H](O)C(C)C)c1` the “% Inhibition” value was 32% and the Z score was -3.64.
For `Cc1cc(C(=O)N[C@H]2CN(C(=O)c3cc(C)oc3C)C[C@@H]2C2CC2)no1`, the “% Inhibition” value was 9% and the Z score was -0.89.
For `N#Cc1ccccc1N1CCN2c3ccc(C(F)(F)F)cc3CC(C(=O)NCC3CC3)C2C1` (stereo not given), the “% Inhibition” value was 0% and the Z score was -0.07.
With `Cc1cccc(NC(=O)Cn2cc(-c3ccccc3)c3ncn(C4CC4)c(=O)c32)c1C` the “% Inhibition” value was -7% and the Z score was 1.
With `O=C(N1CCC(OC2CCCCC2)CC1)[C@]1(O)CCOC1` the “% Inhibition” value was -8% and the Z score was 0.7.
`CNc1ncccc1C(=O)NC[C@H]1CCCN(Cc2c[nH]cn2)C1` was tested, and the “% Inhibition” value was -5% and the Z score was 0.97.
For `CCC(CC)N(C(=O)c1oc(C)nc1C)[C@H]1CCCc2cccnc21`, the “% Inhibition” value was 1% and the Z score was -0.17.
With `COc1ccc(C(N)=NOCC(=O)NCCc2ccccc2)cc1` the “% Inhibition” value was -7% and the Z score was 1.26.
`Cc1c(CCO)c(=O)n(C)n1C(=O)c1ccc(Cl)cc1` was tested, and the “% Inhibition” value was 37% and the Z score was -0.85.
With `CC(C)c1nc(C(=O)NCc2ccc(F)cc2)c[nH]1` the “% Inhibition” value was 2% and the Z score was -0.32.
`N#CC1(NC(=O)c2ccc3c(c2)OCCO3)CCCC1` was tested, and the “% Inhibition” value was 9% and the Z score was -1.19.
`COc1ccc(Cl)cc1C(=O)N[C@@H]1CCCC[C@H]1S(C)(=O)=O` was tested, and the “% Inhibition” value was -7% and the Z score was 0.79.
`CCN(CC)Cc1ccc2c(c1)CN(C(=O)c1ccc(C)nc1)CCO2` was tested, and the “% Inhibition” value was -14% and the Z score was 1.48.
For `O=C(Nc1ccc2nccnc2c1)c1[nH]nc2c1CCCC2`, the “% Inhibition” value was 9% and the Z score was -1.22.
For `C[C@H]1CN(c2ncc(Cl)cn2)CCN1S(C)(=O)=O`, the “% Inhibition” value was 12% and the Z score was -1.63.
With `O=C(O)CCC(=O)Nc1sccc1C(=O)NC1CCCC1` the “% Inhibition” value was 0% and the Z score was 0.08.
With `COc1ccc(CN([C@@H](C)C2CC2)S(=O)(=O)c2cc3c(cc2Cl)OCCO3)cc1` the “% Inhibition” value was -9% and the Z score was 1.62.
In the case of `Cc1ccsc1CNC(=O)NC1CCCCC1CO` (stereo not given), the “% Inhibition” value is reported as 24% and the Z score is reported as -2.79.
For `O=C(NC1CCc2cn[nH]c2C1)N1CC(O)CC1c1ccccc1` (stereo not given), the “% Inhibition” value was -7% and the Z score was 0.78.
`CN(C)c1cccc(C(=O)Nc2ccccc2-c2nc3ccccc3s2)c1` was tested, and the “% Inhibition” value was -4% and the Z score was 0.5.
In the case of `CN(C(=O)c1cc(C#N)cn1C)c1c(F)cccc1C(N)=O`, the “% Inhibition” value is reported as -10% and the Z score is reported as 1.43.
With `Cc1scc(C(=O)N[C@@](C)(Cn2cccn2)C(N)=O)c1C` the “% Inhibition” value was 6% and the Z score was -1.19.
`CCOc1cc(N2CCN(C)CC2)ccc1NC(=O)c1ccc[nH]1` was tested, and the “% Inhibition” value was -8% and the Z score was 1.24.
For `CCCc1cc(=O)n(CC(=O)N2CCN(c3cc4c(nn3)CCC4)CC2)cn1`, the “% Inhibition” value was -9% and the Z score was 1.7.
`CS(=O)(=O)C1(C(=O)Nc2n[nH]c3ccc(F)cc23)CCC1` was tested, and the “% Inhibition” value was -5% and the Z score was 0.74.
With `Cc1nn2c(CN3CCC(c4nnc5n4CCCC5)CC3)c(C(C)C)nc2s1` the “% Inhibition” value was -5% and the Z score was 0.68.
For `CCC1C(C)CCN1S(=O)(=O)c1csnc1C(=O)OC` (stereo not given), the “% Inhibition” value was 2% and the Z score was -0.23.
With `O=C(N[C@H]1CC(=O)N(c2ccc(F)cc2)C1)c1ccco1` the “% Inhibition” value was -5% and the Z score was 0.94.
In the case of `CCc1ccsc1CNCc1cc(C2CCNCC2)no1`, the “% Inhibition” value is reported as -2% and the Z score is reported as 0.38.
`CCN=C(NCc1ccccc1CN1CCOCC1)NC1CC1` was tested, and the “% Inhibition” value was -6% and the Z score was 0.52.
`CC(C)CCC1CCN(C(=O)Cc2ccc(-n3cnnc3)cc2)CC1` was tested, and the “% Inhibition” value was -12% and the Z score was 2.01.
`Cc1ccc(C(=O)NC2CCC(F)C2)o1` (stereo not given) was tested, and the “% Inhibition” value was -5% and the Z score was 0.47.
In the case of `CCS(=O)(=O)C1CN(C(=O)[C@H]2CCCOC2)C1`, the “% Inhibition” value is reported as -7% and the Z score is reported as 1.44.
With `CN(Cc1cnn(C)c1)C(=O)c1cc(S(=O)(=O)N2CCCCC2)ccc1N1CCCC1` the “% Inhibition” value was -16% and the Z score was 1.82.
In the case of `COc1ccc(OCCC(=O)OCC2CCN(C(=O)OC(C)(C)C)CC2)cc1`, the “% Inhibition” value is reported as 0% and the Z score is reported as 0.
`CC(C)c1ccc([C@@H]2CC(=O)c3c(nc4c(cnn4-c4ccc(Cl)cc4)c3N)C2)cc1` was tested, and the “% Inhibition” value was 9% and the Z score was -1.58.
With `Cc1cccnc1Cn1ccnc1-c1ccoc1` the “% Inhibition” value was -10% and the Z score was 1.84.
`COc1ccc(CNC(=O)Nc2ccc3nc(N4CCN(C)CC4)cc(C)c3c2)cc1OC` was tested, and the “% Inhibition” value was -2% and the Z score was 0.19.
In the case of `O=C(Nc1nc2c(s1)CN(C(=O)Cn1cnc3ccccc3c1=O)CC2)[C@@H]1CCCO1`, the “% Inhibition” value is reported as -12% and the Z score is reported as 1.74.
In the case of `CN(C)C(=O)c1cncc(NCc2ccc3nsnc3c2)n1`, the “% Inhibition” value is reported as -8% and the Z score is reported as 0.88.
For `CCN(CC)S(=O)(=O)c1csc(C(=O)Nc2ccon2)c1`, the “% Inhibition” value was -21% and the Z score was 2.48.
`CCNC(=O)[C@H]1CCN(S(=O)(=O)c2cc(-c3cc(C(F)(F)F)on3)ccc2C)C1` was tested, and the “% Inhibition” value was 6% and the Z score was -0.9.
For `O=C([C@@H]1CC[C@H](C(=O)N2CCOC3CCCC32)C1)N1CCOC2CCCC21` (stereo not given in full), the “% Inhibition” value was -5% and the Z score was 0.73.
In the case of `CCc1oc2c(NC(=O)N3C[C@H]4CC[C@@H](C3)N(C)C4=O)cccc2c1C`, the “% Inhibition” value is reported as -9% and the Z score is reported as 1.59.
For `COc1cc(C(=O)Nc2ccc(Oc3cccc4[nH]ccc34)nc2)cc2c1OCCCO2`, the “% Inhibition” value (2 µM) was 4% and the Z score (2 µM) was -1.04.
In the case of `CN(C)[C@H]1CCC[C@@H]1Nc1ncnc2ccccc12`, the “% Inhibition” value is reported as 4% and the Z score is reported as -0.67.
With `O=S(=O)(c1cccnc1N1CCC[C@H]1c1cccs1)N1CCCCC1` the “% Inhibition” value was -9% and the Z score was 0.91.
With `COc1ccc2nc(O)c(C(=O)Nc3ccc4c(c3F)CCNC4)cc2c1` the “% Inhibition” value was 99% and the Z score was -18.01.
With `O=C1O[C@H]2CN(c3nccs3)C[C@H]2N1CCCN1CCOCC1` the “% Inhibition” value was 0% and the Z score was -0.03.
`COc1ccc(OCc2nc(C)cc(=O)n2CC(=O)Nc2cc(F)cc(F)c2)cc1` was tested, and the “% Inhibition” value was -6% and the Z score was 0.89.
For `COCCN1C(=O)[C@@H]2CC[C@H]1CN(C(=O)CCn1nc(C)c(C)c1C)C2`, the “% Inhibition” value was -3% and the Z score was 0.39.
In the case of `CCn1cc(NC(=O)c2ccc3nccc(C)c3c2)cn1`, the “% Inhibition” value is reported as -9% and the Z score is reported as 1.32.
With `CC(NC(=O)[C@H]1CCC(=O)N1Cc1ccccc1)c1ccccc1` (stereo not given in full) the “% Inhibition” value was -12% and the Z score was 1.37.
In the case of `Cn1cc2ncn(Cc3cc(C4CC4)[nH]n3)c(=O)c2n1`, the “% Inhibition” value is reported as -15% and the Z score is reported as 1.65.
`Cc1cccc(NC(=O)Cn2c(C)ncc(C(=O)NC3CCCC3)c2=O)c1C` was tested, and the “% Inhibition” value was -11% and the Z score was 1.73.
In the case of `COc1cc(F)c(NCc2csc(C3CC3)n2)cc1OC`, the “% Inhibition” value is reported as 35% and the Z score is reported as -4.68.
`O=C(CN1C(=O)COc2ccc(Cl)cc21)Nc1cnccc1O` was tested, and the “% Inhibition” value was -7% and the Z score was 0.63.
`COc1ccc(-c2cc(N3CC[C@H](NC(=O)c4cccc(Br)c4)C3)[nH]n2)cc1` was tested, and the “% Inhibition” value was -12% and the Z score was 1.24.
In the case of `CC(C)Cn1ncc2ncccc2c1=O`, the “% Inhibition” value is reported as 6% and the Z score is reported as -0.93.
For `CCn1ncc(C(=O)N2CC[C@H](c3nc(N(C)C)ncc3C(=O)NCCOC)C2)c1C`, the “% Inhibition” value was -3% and the Z score was 0.41.
In the case of `Cc1ccc2oc(NCC3CCCC34NC(=O)NC4=O)nc2c1` (stereo not given), the “% Inhibition” value is reported as 14% and the Z score is reported as -1.64.
With `CC(C)(c1ccccc1)c1ccc2oc(-c3ccc(-c4nc5cc(C(C)(C)c6ccccc6)ccc5o4)s3)nc2c1` the “% Inhibition” value was -10% and the Z score was 2.03.
`O=C(NC[C@H]1COCCO1)c1ccc(OCC(=O)N2CCCCC2)cc1` was tested, and the “% Inhibition” value was -5% and the Z score was 0.85.
In the case of `COC1CC(c2nc(C)no2)N(CCC(C)c2ccccc2)C1` (stereo not given), the “% Inhibition” value is reported as 1% and the Z score is reported as -0.14.
For `Clc1cccnc1OCc1cncs1`, the “% Inhibition” value was -7% and the Z score was 0.88.
In the case of `c1ccc(Cc2ccc(OCCOCCN3CCOCC3)cc2)cc1`, the “% Inhibition” value is reported as -3% and the Z score is reported as 0.61.
For `O=C(c1ccncc1F)N1CCCCCO1`, the “% Inhibition” value was -17% and the Z score was 1.74.
For `CCCCOc1ccccc1CN1CC[C@H](O)C1`, the “% Inhibition” value was -3% and the Z score was 0.39.
With `Nc1c(C(=O)NCc2ccc3c(c2)OCO3)sc2nc(-c3ccc4c(c3)OCO4)ccc12` the “% Inhibition” value was -4% and the Z score was 0.52.
With `CC(C)COCCCNS(=O)(=O)C1CCOC1C` (stereo not given) the “% Inhibition” value was -11% and the Z score was 1.32.
With `Cc1ccc(S(=O)(=O)N2CCC3(CC2)N[C@@H](C(C)C)C(=O)N3Cc2ccc3c(c2)OCO3)cc1` the “% Inhibition” value was -9% and the Z score was 1.53.
For `CCc1ccc(C2=NN([C@H]3CCOC(C)(C)C3)C(=O)CC2)cc1`, the “% Inhibition” value was 0% and the Z score was -0.04.

— ChEMBL document CHEMBL4888484, “Replenishing the malaria drug discovery pipeline: Screening and hit evaluation of the MMV Hit Generation Library 1 (HGL1) against asexual blood stage Plasmodium falciparum ,using a nano luciferase reporter read-out” (2022)
